# Data taken from ChEMBL document CHEMBL4888484, “Replenishing the malaria drug discovery pipeline: Screening and hit evaluation of the MMV Hit Generation Library 1 (HGL1) against asexual blood stage Plasmodium falciparum ,using a nano luciferase reporter read-out” (2022).
# Among all 150,000 compounds or so, about 540 (0.36%) showed an effect of 50% or more. This is one part of the list.
# Test system: Plasmodium falciparum
# Assay: Primary screen in NF54 nanoGlo assay, in single point, at 2uM, 72h; a lower Z score goes with more inhibition
# Type: functional, Erythrocyte
# Conditions: timepoint 72 hour
Structure (SMILES),% Inhibition [%],Z score
Cc1cnc(C2CC2)n1CCNC(=O)C1CC=CC1,-4,0.85
C=CCC(C)(CC=C)NS(=O)(=O)c1ccc(C)cc1,-7,1.18
CCc1nocc1CN(C)C(=O)[C@@H]1CCCN1c1nccs1,-3,0.47
O=C1C[C@H](c2cccc(F)c2)c2sc(N3CCCCC3)nc2N1,-4,0.47
CCN(C(=O)C1CCN(S(=O)(=O)c2c(C)[nH]c(C)c2C(=O)N2CCCCC2)CC1)c1ccccc1,0,-0.04
CC(C)CNC(=O)[C@H]1CC(=O)N(c2ccc(OCC(=O)NCc3ccccc3)cc2)C1,-3,0.33
Cc1ccc(CNC2CCCCCC2)s1,-12,1.77
CN(c1nc2c(s1)CCCC2)S(C)(=O)=O,30,-3.9
COc1ccc(F)c(F)c1CN(C)[C@@H](C)c1ccncn1,-4,0.47
CC(C)N(CC1CCC1)C(=O)NCc1cc2c(cc1OC(F)F)OCO2,-10,1.44
Cn1ccc2ccc(CCC(=O)NC(C)(C)C)cc21,16,-1.79
O=C1CCCN1CCc1noc([C@H]2C[C@@H]3C=C[C@H]2C3)n1,-25,3.21
Cc1ccc(Cl)c(CNCCN2CCC[C@H](CO)C2)c1F,1,-0.16
Cc1nc(-c2ccc(NC(=O)C3CCN(S(=O)(=O)c4cc(Cl)ccc4Cl)CC3)cc2)co1,-4,0.61
CC(=O)N1CC[C@H](CN(C)C(=O)Nc2ccn(CCC(C)C)n2)C1,-11,1.43
N#Cc1ccccc1OC/C=C/COc1ccccc1C#N,-43,5.01
c1ccc2nc(N3CC(c4ncc(C5CC5)cn4)C3)cnc2c1,-1,0.18
Cc1ccc(C)c(NS(=O)(=O)c2ccc(NC(=O)c3ccc(CN4CCOCC4)cc3)cc2)c1,-7,0.88
CCN1CCN(C(=O)C[C@H](c2cccc(Cl)c2)c2c[nH]c3ccc(Cl)cc23)CC1,-12,1.51
CCNc1nc(C)c(C(=O)N(C)Cc2cc(-c3cccs3)n[nH]2)s1,9,-1.66
Cc1nc(-c2noc([C@@]34CCCC[C@@H]3NCC4)n2)co1,0,-0.03
C[C@@H](CNC(=O)c1coc(CN2CCN(c3ncccn3)CC2)n1)c1ccccc1,-13,1.51
Cc1cccc(OCCN2C(=O)N[C@@]3(CCCCc4ccccc43)C2=O)c1,4,-0.78
O=C1O[C@H]2CN(c3ncnc4[nH]cnc34)C[C@H]2N1CCN1CCCCC1,-4,0.39
C#CCNC(=O)[C@H](C)Nc1ccn(CC(F)(F)F)n1,-10,1.01
Cc1cccnc1[C@H](C)NS(=O)(=O)CC(C)C,0,0
Cc1ccc(NC(=O)CCn2nnc3cc(C(=O)NCc4ccc(C)c(C)c4)ccc32)cc1,-4,0.63

Structure (SMILES),% Inhibition [%],Z score
C[C@@H](CNc1ccccc1)NC(=O)CCc1ccccn1,-9,1.7
Cc1ccc(C(=O)Nc2ccc(N3CCN(c4c(F)c(F)c(F)c(F)c4F)CC3)cc2)c(Cl)c1,29,-0.73
c1cc(CN(CCN2CCCCC2)C[C@H]2CCCN(C3CCCC3)C2)c2nonc2c1,-9,1.13
CCOc1ccnc(N2CC[C@H](C(=O)NC)C2)n1,-7,1.26
Oc1ccc(N2CCN(c3cc(N4CCCC4)ncn3)CC2)cc1,-13,1.27
CC1(C)C[C@@H]2C[C@@](C)(CN2c2ccnc(C(=O)NCc3cccnc3)c2)C1,-4,0.5
CCN1CC(C(=O)N2CCCC(C(C)(C)C)CC2)CC1=O (stereo not drawn),-8,1.01
COCCN(Cc1csc(COc2ccc(Cl)cc2)n1)C(=O)C1CCCC1,-8,1.14
C[C@@H](C(=O)Nc1cccc2ccccc12)N1CCCCC1,36,-4.79
COc1ccc(F)cc1-c1cncc(CN2CCC(NC(C)=O)CC2)c1,-11,1.19
Cc1nn(C)c(C)c1[C@H]1OCC[C@@H]1NS(=O)(=O)C1(C)CC1,-9,1.24
Cc1cnccc1CN(C)Cc1c(C)nn(C)c1Cl,-10,1.13
FC(F)(F)c1nccc(N2CCCCCCC2)n1,-5,0.99
CC(=O)Nc1cccc2c1N(Cc1cccc3cccnc13)CCC2,-10,0.93
CN(C)c1nccc(NCC2(C(N)=O)CCOCC2)n1,8,-0.98
Cc1ncc(CN2C(=O)NC3(CCCCCCC3)C2=O)s1,-4,0.64
O=C1N[C@]2(CCOC2)C(=O)N1Cc1ccc(F)c(Cl)c1,-18,2.46
c1cc(-c2nc(CN3CC4CCCC4C3)no2)cs1 (stereo not drawn),14,-1.6
CCOC1(C)CCN(c2nccc(-c3ccnn3C)n2)CC1,8,-1.67
COc1ccc(OC)c(-n2ccnc2[C@H]2CCOC(C)(C)C2)c1,-3,0.4
Cc1ccc(S(=O)(=O)N(CC(=O)N2CCc3sccc3[C@@H]2COc2ccc(F)cc2)CC(C)C)cc1,-7,1.11
N#Cc1c(N)nc2c(c1-c1ccc(C(N)=O)cc1)CCc1[nH]ccc1-2,-5,0.81
N#Cc1ncn(CCc2ccc3c(c2)CCO3)n1,13,-1.57
COCCN1CCC[C@H](NC(=O)C(=O)Nc2ccccc2Cl)C1,-4,0.48
CC(C)[C@H](C)N(Cc1cc(NC(=O)C2CCC2)ccc1N(C)C)C(=O)Nc1cccc(F)c1,-12,1.02
O=C(NCC1CCN(c2cnsn2)CC1)[C@H]1CCCO1,7,-1.01
CC(C)NC(=O)CCNc1nccc2nsnc12,-17,2.43
